ChEMBL document CHEMBL4888484, “Replenishing the malaria drug discovery pipeline: Screening and hit evaluation of the MMV Hit Generation Library 1 (HGL1) against asexual blood stage Plasmodium falciparum ,using a nano luciferase reporter read-out” (2022)
The whole screen tested about 150,000 compounds, of which about 540 (0.36%) showed an effect of 50% or more. The list shows a part of the results.

Tested on: Plasmodium falciparum
Test: Primary screen in NF54 nanoGlo assay, in single point, at 2uM, 72h; a lower Z score goes with more inhibition
Type: functional, Erythrocyte
Settings: timepoint 72 hour

| SMILES | % Inhibition [%] | Z score |
| --- | --- | --- |
| O=C(Cn1cc(C(F)(F)F)ccc1=O)N1CCc2ccccc21 | -13 | 2.5 |
| Cn1ncc2c(=O)[nH]c(CN3CCN(CC(F)F)CC3)nc21 | 3 | -0.31 |
| Cc1ncn(C)c1C(=O)NCc1ccc(N2CCCC2=O)cc1 | -6 | 1.09 |
| O=C(O)c1ccc(N2C(=O)[C@H]3CCCC[C@H]3C2=O)cc1 | -1 | 0.07 |
| Cc1c(F)cccc1CN1CC[C@H](N2CCN(C)CC2)[C@H](CCCO)C1 | -2 | 0.52 |
| COc1ccc(CNC(=O)c2ccc(Cl)c(N3C(=O)CCS3(=O)=O)c2)cc1 | -9 | 1.09 |
| Cc1cc(C(F)(F)F)n(C[C@@H](C)Cn2cc(-c3cncnc3)nn2)n1 | -6 | 0.77 |
| Cc1cc(C)nc(O[C@H]2CCN(C(=O)c3ccc4[nH]cnc4c3)C2)n1 | -14 | 2.15 |
| Cc1cc(C(=O)N2CCO[C@H](C(F)F)C2)c(C)n1C1CC1 | -12 | 1.39 |
| C[C@@H]1CN(C(=O)c2ccc(Cl)c(Cl)c2)CC[C@@]1(O)C1CCOCC1 | -6 | 1.23 |
| O=C(NC1CCN(c2ccc(-c3cccc(F)c3)nn2)CC1)c1ccccn1 | 15 | -1.71 |
| O=S(=O)(c1ccc2c(c1)CCCC2)N1CCCN(c2nc3cccnc3s2)CC1 | -25 | 2.48 |
| Cc1nc2cc(NC(=O)C3=NNC(=O)CC3)ccc2o1 | 9 | -1.38 |
| COCC[C@]1(NC(=O)c2ccc(F)cc2)CCN(Cc2ccc(C(C)C)cc2)C1 | -12 | 1.56 |
| CCCCS(=O)(=O)NCc1csc(-c2ccn(C)n2)n1 | -6 | 0.69 |
| Cc1cccnc1N1CCN(C(=O)C[C@@H]2NC(=O)NC2=O)CC1 | 3 | -0.63 |
| COc1nc(C)c(C(=O)N2C[C@@H](C)[C@@](C)(O)C2)s1 | -2 | 0.3 |
| CCCCn1nc(CC(C)C)nc1Cc1ccncc1 | -7 | 0.94 |
| Cc1ccc([C@@H]2CCCCN2CCn2cccn2)o1 | -12 | 1.78 |
| COC(=O)NCC1CCN(C(=O)OC)CC1 | -7 | 1.11 |
| O=C1N[C@@H](c2cnn(Cc3ccccc3)c2)Nc2ccccc21 | 0 | 0.02 |

| SMILES | % Inhibition [%] | Z score |
| --- | --- | --- |
| Cc1cc(O[C@H]2CCN(C(=O)NCCc3ccccc3)C2)nc(C)n1 | 2 | -0.36 |
| CS(=O)(=O)N1CCN(C(=O)c2cc(=O)[nH]c3cc(F)ccc23)CC1 | -9 | 1.01 |
| CC(C)[C@H](CNC(=O)c1cc(F)cc(Cl)c1)N(C)C | 10 | -1.95 |
| COCc1ccccc1C(=O)N1CC[C@H](C)S(=O)(=O)CC1 | -11 | 1.56 |
| CC[C@H](C)NC(=O)CCc1nc(-c2nn(-c3ccccc3)c(=O)n(C)c2=O)no1 | -8 | 1.35 |
| COCCN1C(=O)CO[C@H]2CN(C(=O)c3ccc(F)cc3)C[C@H]21 | 24 | -2.76 |
| Cc1n[nH]cc1CN(C)C(=O)CC[C@H](C)N1CCOCC1 | -5 | 0.86 |
| O=C1CC(C(=O)N2CCCCC2c2nc(-c3ccccc3)c[nH]2)CN1 (centres undefined) | 37 | -1.78 |
| COc1ccnc(CN2CCC(c3cc(Cc4ccccc4)n[nH]3)CC2)c1 | 2 | -0.24 |
| CCCCc1nc(Cn2ccnn2)no1 | -3 | 0.31 |
| O=C(NCc1cccs1)N1CC(n2nccn2)C1 | 17 | -1.89 |
| CCc1cnc(CCNc2ccccn2)s1 | 10 | -1.34 |
| COc1cc(OC)cc(C(=O)N(C(=O)c2cc(OC)cc(OC)c2)c2cccc(C)n2)c1 | 3 | -0.36 |
| CO[C@@H](CS(=O)(=O)Nc1c(C)cc(C)cc1C(=O)O)c1ccc(F)cc1 | -1 | 0.11 |
| O=C(Nc1cncc(Cl)c1)N1CC(CO)C1 | -1 | 0.11 |
| CCN(CC)C(=O)NCc1ccccc1OC | -3 | 0.58 |
| Cc1nn(C)c2ncnc(Nc3ccc4cn[nH]c4c3)c12 | 2 | -0.31 |
| COc1ccc(Cl)cc1NC(=O)Cn1nc2c(Oc3ccccc3C)nc3ccccc3n2c1=O | -12 | 1.15 |
| N#Cc1ccccc1CN1CCN(C(=O)c2ccccn2)[C@H]2CS(=O)(=O)C[C@H]21 | -4 | 0.68 |
| O=C(CCC(F)(F)F)N[C@H]1CCOC[C@@H]1O | 1 | -0.17 |
| C[C@H](NC(=O)N1CC[C@@H]2OCC(=O)N[C@H]2C1)c1ccc(F)cc1Cl | -9 | 1.67 |
